Test [1] has as its target T1, PR domain-containing protein 14 (PRDM14) (human, UniProt Q9GZV8 1-571).
T1 construct: the whole entry is used; also called native PRDM14
T1 sequence: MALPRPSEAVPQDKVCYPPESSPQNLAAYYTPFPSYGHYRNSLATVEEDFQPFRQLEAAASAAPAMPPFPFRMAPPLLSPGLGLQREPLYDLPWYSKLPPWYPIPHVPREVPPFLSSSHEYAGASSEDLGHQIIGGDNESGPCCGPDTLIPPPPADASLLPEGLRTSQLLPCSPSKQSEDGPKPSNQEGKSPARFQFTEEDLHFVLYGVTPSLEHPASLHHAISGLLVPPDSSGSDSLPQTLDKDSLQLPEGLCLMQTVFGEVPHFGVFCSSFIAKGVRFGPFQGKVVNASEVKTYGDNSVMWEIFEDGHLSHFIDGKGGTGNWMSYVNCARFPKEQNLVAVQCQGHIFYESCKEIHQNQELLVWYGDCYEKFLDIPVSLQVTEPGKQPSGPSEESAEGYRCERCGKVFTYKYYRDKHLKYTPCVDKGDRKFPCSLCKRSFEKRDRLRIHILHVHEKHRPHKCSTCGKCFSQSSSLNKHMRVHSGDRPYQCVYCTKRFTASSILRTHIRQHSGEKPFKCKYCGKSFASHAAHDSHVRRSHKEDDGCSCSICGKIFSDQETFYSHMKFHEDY
As to the kind of experiment: co-IP from hESC whole cell lysate with anti-Nanog antibody, western with PRDM14 antibody (FIG. 14H).

For the next test, the target named is T2, HA tagged PRDM14 (human, UniProt Q9GZV8 1-571).
T2 construct: whole cell lysate used for co-IP; not shown: HA tag
T2 sequence: T1 sequence
Put plainly: co-IP from lysate of 293T cells co-transfected with HA tagged PRDM14 and NANOG, with anti-HA and anti-Nanog antibody (FIGS. 14I, 14J).

B1: NANOG (other, human, UniProt Q9H9S0 1-305, looked up)
chain: MSVDPACPQSLPCFEASDCKESSPMPVICGPEENYPSLQMSSAEMPHTETVSPLPSSMDLLIQDSPDSSTSPKGKQPTSAEKSVAKKEDKVPVKKQKTRTVFSSTQLCVLNDRFQRQKYLSLQQMQELSNILNLSYKQVKTWFQNQRMKSKRWQKNNWPKNSNGVTQKASAPTYPSLYSSYHQGCLVNPTGNLPMWSNQTWNNSTWSNQTQNIQSWSNHSWNTQTWCTQSWNNQAWNSPFYNCGEESLQSCMQFQPNSPASDLEAALEAAGEGLNVIQQTTRYFSTPQTMDLFLNYSMNMQPEDV
notes: No tag is stated
Regarding B1, the binding result (in test [1]; in the test with HA tagged PRDM14) was “binds” in each case.
